# Source: the supplement of paper PMC10723795
# This is one part of the list.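 How the source made its calls: active = more than 2 SD below the DMSO mean: under 0.85 at 10 µM or 0.885 at 1 µM; inactive = the rest.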 Single values are uncertain, as repeats are few or missing.
# Test system: RPE1
# Assay: nucleolar normality score relative to DMSO (fraction of DMSO control); RPE1 is a non-cancer human cell line; higher = more normal nucleoli (less nucleolar stress)
# Conditions: 24 h
# 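Further: fixed cells immunolabelled for nucleolin and UBF, 40 image fields per well in 384-well plates, per-cell score = nucleolin nucleolar/nucleoplasm intensity ratio divided by the matching UBF ratio.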
Compound,nucleolar normality score (1 µM),nucleolar normality score (10 µM)
COc1ccc(C2CC(c3ccccc3)=NN2c2ccc(S(N)(=O)=O)cc2)cc1 (stereo unspecified),inactive: 0.927,inactive: 1
Cc1cc(Nc2cc(N3CCN(C)CC3)nc(/C=C/c3ccccc3)n2)n[nH]1 [ENMD-2076 L-(+)-Tartaric acid],inactive: 0.907,inactive: 0.939
Cc1cc(Nc2cc(N3CCN(C)CC3)nc(/C=C/c3ccccc3)n2)n[nH]1,inactive: 1.04,inactive: 1.08
COCCOc1ccc2c(c1)ncn2-c1ccc2cccc(N3CCC(N)CC3)c2n1,inactive: 0.944,inactive: 1.01
CCCC(=O)[O-].[Na+] [Sodium butyrate],active: 0.23,inactive: 1.07
Cc1nn(C)c2c1C(c1ccc(C(F)(F)F)cc1)C(C#N)=C(N)O2 (stereo unspecified),inactive: 1.01,inactive: 0.963
CCCCCCCCCCCC1=C(O)C(=O)C=C(O)C1=O [Embelin],inactive: 1.03,inactive: 0.91
COc1c2ccoc2cc2oc(=O)ccc12 [Bergapten],inactive: 1.12,inactive: 0.903
Cc1ccc([N+](=O)[O-])cc1S(=O)(=O)N(C)/N=C/c1cnc2ccc(Br)cn12,inactive: 1,active: 0.115
COc1cc(OC)c(/C=C/S(=O)(=O)Cc2ccc(OC)c(NCC(=O)O)c2)c(OC)c1,inactive: 1.03,inactive: 1.07
COc1ccc(-c2ccc3c(N4CCOCC4)nc(N4C[C@@H](C)O[C@@H](C)C4)nc3n2)cc1CO,inactive: 0.986,inactive: 1
Nc1nc(OCc2ccccc2)c2nc[nH]c2n1 [O6-Benzylguanine],inactive: 1.02,inactive: 0.877
CC1=C(/C=C/C(C)=C/C=C/C(C)=C\C(=O)O)C(C)(C)CCC1 [Isotretinoin],inactive: 0.896,inactive: 0.991
CN(Cc1cnc2nc(N)nc(N)c2n1)c1ccc(C(=O)N[C@@H](CCC(=O)O)C(=O)O)cc1 [Methotrexate],inactive: 1.02,active: 0.729
O=C(Nc1nccs1)C(c1cc(F)ccc1O)N1Cc2ccccc2C1=O (stereo unspecified),inactive: 0.958,inactive: 0.974
"CC/C(=C(/c1ccc(/C=C/C(=O)O)cc1)c1ccc2[nH]ncc2c1)c1ccc(F)cc1Cl [Brilanestrant (GDC-0810, ARN-810)]",inactive: 1.11,inactive: 0.985
COc1cc(C(C)=O)ccc1O [Apocynin],inactive: 1.1,inactive: 1.1
CCCCCCCCCCCCCCCCOP(=O)([O-])OCC[N+](C)(C)C [Miltefosine],inactive: 1.01,inactive: 1.09
